No constants are given. Whether binding was seen depends on the method and setting. For part of these data: In cells and extracts the contact can be indirect. Some results given as binding are weak or reduced against the parent protein; the word gives no strength. For part of these data: Tags and fused reporters may be left off the sequences shown. Each block holds one substance with its values, some of them ahead of it.
Assays:
[1] = target: T1, dynamin purified from adult rat brain (rat (endogenous in rat brain)) (UniProt P21575); experiment: co-sedimentation; dynamin self-assembly assay: purified dynamin (2.5 μg), pre-incubated or not on ice 1 h with purified GST or GST-IgFn (5 μg), 10 min at room temperature with liposomes of 10% PI(4,5)P2; 60,000 x g, 15 min; Coomassie staining of supernatant and pellet; both purified
T1 sequence: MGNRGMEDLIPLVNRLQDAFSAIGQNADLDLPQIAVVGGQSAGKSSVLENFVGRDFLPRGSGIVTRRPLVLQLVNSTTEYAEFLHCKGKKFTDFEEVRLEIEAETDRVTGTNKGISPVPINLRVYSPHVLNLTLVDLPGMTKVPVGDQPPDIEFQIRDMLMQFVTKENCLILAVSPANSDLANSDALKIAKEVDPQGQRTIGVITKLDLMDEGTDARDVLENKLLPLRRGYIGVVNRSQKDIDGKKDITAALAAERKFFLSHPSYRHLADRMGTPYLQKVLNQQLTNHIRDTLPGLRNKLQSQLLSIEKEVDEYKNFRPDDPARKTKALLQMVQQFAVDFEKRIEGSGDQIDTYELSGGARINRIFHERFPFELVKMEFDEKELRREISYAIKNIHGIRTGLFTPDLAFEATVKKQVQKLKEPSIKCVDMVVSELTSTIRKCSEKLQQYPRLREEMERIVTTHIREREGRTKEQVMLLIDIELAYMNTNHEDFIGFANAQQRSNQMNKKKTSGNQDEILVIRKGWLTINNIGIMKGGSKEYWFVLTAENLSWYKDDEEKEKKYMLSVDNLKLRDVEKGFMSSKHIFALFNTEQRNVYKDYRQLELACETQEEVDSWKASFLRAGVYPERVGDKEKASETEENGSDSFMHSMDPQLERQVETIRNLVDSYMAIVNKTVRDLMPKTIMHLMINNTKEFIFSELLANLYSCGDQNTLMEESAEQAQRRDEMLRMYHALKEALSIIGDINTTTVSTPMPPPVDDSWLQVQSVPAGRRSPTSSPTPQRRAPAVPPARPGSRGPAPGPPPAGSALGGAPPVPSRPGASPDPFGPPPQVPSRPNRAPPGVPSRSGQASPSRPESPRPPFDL

[2] = target: T2, dynamin2 (rat, endogenous) (rat (endogenous in rat cortex)) (UniProt P39052); experiment: co-IP; rat embryonic cortex cytosol immunoprecipitated with Kalirin-spectrin antibody (blots: pan-dynamin, dynamin1, dynamin2) or with dynamin antibody (blot: Kalirin12)
T2 sequence: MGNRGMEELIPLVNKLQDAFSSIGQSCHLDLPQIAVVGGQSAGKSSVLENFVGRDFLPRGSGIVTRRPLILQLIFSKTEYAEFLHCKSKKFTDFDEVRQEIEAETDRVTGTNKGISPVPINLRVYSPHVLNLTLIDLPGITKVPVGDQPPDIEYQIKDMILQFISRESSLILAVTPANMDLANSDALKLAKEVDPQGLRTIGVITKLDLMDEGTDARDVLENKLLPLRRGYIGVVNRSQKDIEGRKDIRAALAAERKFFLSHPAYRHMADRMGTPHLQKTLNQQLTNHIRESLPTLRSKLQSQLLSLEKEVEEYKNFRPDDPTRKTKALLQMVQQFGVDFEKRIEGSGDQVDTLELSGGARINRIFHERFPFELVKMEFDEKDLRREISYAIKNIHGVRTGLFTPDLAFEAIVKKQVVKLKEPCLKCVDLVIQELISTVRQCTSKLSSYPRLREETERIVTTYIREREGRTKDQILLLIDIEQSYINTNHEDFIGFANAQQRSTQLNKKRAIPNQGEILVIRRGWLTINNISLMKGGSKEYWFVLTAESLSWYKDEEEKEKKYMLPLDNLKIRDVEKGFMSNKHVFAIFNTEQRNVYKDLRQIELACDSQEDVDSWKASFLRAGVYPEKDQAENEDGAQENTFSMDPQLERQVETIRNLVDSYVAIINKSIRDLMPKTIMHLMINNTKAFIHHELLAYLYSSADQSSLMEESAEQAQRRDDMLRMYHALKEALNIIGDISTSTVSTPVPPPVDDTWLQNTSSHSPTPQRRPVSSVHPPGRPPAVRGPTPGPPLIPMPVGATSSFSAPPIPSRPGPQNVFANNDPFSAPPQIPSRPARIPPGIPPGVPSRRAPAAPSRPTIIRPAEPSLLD

[3] = target: T3, dynamin2/GTPase-GFP fusion protein (human) (UniProt P50570); experiment: co-IP; extracts of pEAK Rapid cells co-expressing dynamin2/GTPase-GFP with Kalirin7 or Kalirin12, immunoprecipitated with polyclonal GFP antibody or control immunoglobulin, blotted with Kalirin-spectrin antibody
T3 sequence: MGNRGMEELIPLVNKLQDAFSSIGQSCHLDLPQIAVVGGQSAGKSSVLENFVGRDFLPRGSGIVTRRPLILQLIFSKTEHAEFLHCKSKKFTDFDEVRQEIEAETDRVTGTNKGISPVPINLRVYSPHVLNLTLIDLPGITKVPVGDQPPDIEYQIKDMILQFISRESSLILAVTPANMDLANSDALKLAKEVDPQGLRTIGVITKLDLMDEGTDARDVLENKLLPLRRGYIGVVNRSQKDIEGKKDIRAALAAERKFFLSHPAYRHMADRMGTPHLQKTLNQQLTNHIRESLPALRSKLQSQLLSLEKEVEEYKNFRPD

binding [1]: binds
Substance: GST-IgFn (IgFn region of rat Kalirin12 fused to GST) (from UniProt P97924-4 2456-2625) (domain or fragment)

binding [2]: binds
Substance: Kalirin12 (endogenous) (from UniProt P97924-4 1-2968)

binding [3]: binds
Substance: full-length myc-tagged Kalirin12 (from UniProt P97924-4 1-2968)

Reference: article PMC2703648
